Data: PubChem BioAssay AID1030 (National Center for Advancing Translational Sciences (NCATS), 2008)
Out of some 220,000 compounds screened, about 16,000 (7.3%) were called active. Inconclusive means that the source gave no clear call. Such entries were picked first, then a sample of the others. The call rests on the fitted dose curve; in most records, active means well fitted inhibition curve with a large enough effect (not every such curve was filed as active); inconclusive means small, poorly fitted or top-dose-only effect, or another doubt; inactive means no such curve, though single readings can be large or run the other way. No potency is given beside an inconclusive call; the fits are too rough.
Potency means the concentration at half of the fitted maximal effect; tags describe the fitted curve by direction and shape.

The compounds below were run against Aldehyde dehydrogenase 1A1 (Homo sapiens) (UniProt P00352) (assay: qHTS Assay for Inhibitors of Aldehyde Dehydrogenase 1 (ALDH1A1)). Conditions: Purified ALDH1A1, NADH fluorescence, propionaldehyde substrate; series mostly up to 75.3 µM.
Sequence of UniProt P00352 (P00352 whole entry, looked up): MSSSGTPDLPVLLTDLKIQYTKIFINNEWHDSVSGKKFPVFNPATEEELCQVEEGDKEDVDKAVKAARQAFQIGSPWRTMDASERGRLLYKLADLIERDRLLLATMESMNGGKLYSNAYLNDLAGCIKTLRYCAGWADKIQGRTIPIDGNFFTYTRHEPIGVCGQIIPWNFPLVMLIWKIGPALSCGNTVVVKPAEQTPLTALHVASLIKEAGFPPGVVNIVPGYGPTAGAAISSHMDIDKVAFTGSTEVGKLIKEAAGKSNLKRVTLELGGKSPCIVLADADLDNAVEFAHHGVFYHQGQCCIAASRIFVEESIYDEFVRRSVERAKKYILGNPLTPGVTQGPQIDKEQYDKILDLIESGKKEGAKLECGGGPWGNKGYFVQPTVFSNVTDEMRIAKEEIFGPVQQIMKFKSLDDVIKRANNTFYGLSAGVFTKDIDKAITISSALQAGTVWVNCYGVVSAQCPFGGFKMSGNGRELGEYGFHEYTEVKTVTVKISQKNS
With `CSc1nsc(SCC(=O)Nc2nc3ccc(C)cc3s2)n1` the Potency was active: 39.8 µM. With `CCOc1ccc(CC(=O)N2CCN=C2SCc2ccc([N+](=O)[O-])cc2)cc1` the Potency was inconclusive [inhibitor, partial curve]. For `COc1cc(C(=S)N2CCCC2)cc(Cl)c1OCC(=O)Nc1ccc(C)cc1C`, the Potency was active: 2.51 µM. For `COCCn1c(=O)c(-c2ccc(F)c(F)c2)nc2cncnc21`, the Potency was “inactive”. In the case of `Cc1nnc2sc(SCC(=O)Nc3nccs3)nn2c1=O`, the Potency is reported as “inactive”. `CCCCN(CC)CCNc1c(NC2CCN(C(=O)OCC)CC2)c(=O)c1=O` was tested, and the Potency was inconclusive [inhibitor, partial curve]. In the case of `NNC(=O)c1cccc(COc2ccc3c(c2)CCC3)c1`, the Potency is reported as “inactive”. `COc1ccc(F)cc1S(=O)(=O)NC1CCCC1` was tested, and the Potency was “inactive”. For `CCOc1ccc(NC(=S)N2c3ccccc3CC2C)cc1` (configuration not stated), the Potency was inconclusive [inhibitor, single point]. For `COc1ccc(C2Nc3cccc4cccc(c34)N2)cc1`, the Potency was inconclusive [inhibitor, single point]. In the case of `COc1ccc(OC)c2[nH]c(=O)c(CCNC(=O)C(C)(C)C)cc12`, the Potency is reported as inconclusive [inhibitor, single point]. For `O=C(O)c1ccc(Cl)c(N2C(=O)Nc3ccccc3N2O)c1`, the Potency was inconclusive [inhibitor, single point]. For `O=C(NC(=S)Nc1ccc(N2CCOCC2)c(Cl)c1)C(c1ccccc1)c1ccccc1`, the Potency was active: 11.2 µM. In the case of `Cc1nc(SCC(=O)Nc2cc(Cl)ccc2[N+](=O)[O-])nc(C)c1C`, the Potency is reported as “inactive”. For `CCC1CSC(Nc2ccc(C(=O)/C=C/c3ccc(Br)cc3)cc2)=N1` (configuration not stated), the Potency was “inactive”. For `O=C(CCNc1cccc(C(F)(F)F)c1)c1ccco1`, the Potency was active: 2.51 µM. In the case of `O=C(NC(Nc1ncccn1)C(=O)c1ccccc1)c1ccccc1` (configuration not stated), the Potency is reported as inconclusive [inhibitor, partial curve]. For `CCC1=NC(c2ccc(OC)cc2OC)N(O)C1(C)C` (configuration not stated), the Potency was active: 8.91 µM. `CCOC(=O)C1CCN(Cc2ccc(F)cc2F)CC1` was tested, and the Potency was inconclusive [inhibitor, single point]. With `O=C(OCC(=O)N1CCN(S(=O)(=O)c2ccccc2)CC1)c1ccc([N+](=O)[O-])o1` the Potency was active: 20 µM. `Cc1ccc(NC(=O)CSC2=NN3CCCC(=O)N=C3S2)c(C)c1` was tested, and the Potency was inconclusive [inhibitor, single point]. In the case of `O=c1oc2cc(OCc3c(F)c(F)c(F)c(F)c3F)ccc2cc1-c1ccccn1`, the Potency is reported as inconclusive [inhibitor, partial curve]. With `CCN(CC)c1ccc(NC(=O)COc2ccccc2C#N)cc1S(=O)(=O)Nc1ccc(OC)cc1` the Potency was active: 22.4 µM. With `CN(C)Cc1ccccc1-c1cncnc1NCc1ccccc1` the Potency was inconclusive [inhibitor, single point]. With `O=C(/C=C/Sc1ccccc1)c1ccccc1` the Potency was active: 7.94 µM. In the case of `O=C(CNC1CCCCCC1)Nc1ccc(S(=O)(=O)NC2CC2)cc1`, the Potency is reported as “inactive”. With `Oc1ccc(CN2CCCc3ccccc32)c2cccnc12` the Potency was active: 10 µM. `CCOC(=O)c1ccc(N2CSC3=C(C#N)C(c4cccs4)CC(=O)N3C2)cc1` (configuration not stated) was tested, and the Potency was active: 22.4 µM. With `Cc1ccc2sc(-c3ccc(NC(=O)CCN4C(=O)c5ccccc5C4=O)cc3)nc2c1` the Potency was “inactive”. `O=C(Oc1ccc(C(=S)N2CCCCC2)cc1)c1ccccc1` was tested, and the Potency was active: 11.2 µM. `CCN(CC)c1ccc(/C=N/NC(=O)Cc2ccc(OC)c(OC)c2)cc1` was tested, and the Potency was inconclusive [inhibitor, partial curve]. With `CCOC(=O)c1c(N2C(=O)C3C4C=CC(C4)C3C2=O)sc2c1CCC(C)C2` (configuration not stated) the Potency was inconclusive [inhibitor, single point]. In the case of `CN(C)/C=C1\Oc2ccc3ccccc3c2C1=O`, the Potency is reported as inconclusive [inhibitor, single point]. With `Cn1c(CNS(=O)(=O)c2ccc(Br)cc2)n[nH]c1=S` the Potency was “inactive”. In the case of `COc1cc(/C=N/NS(=O)(=O)c2ccc3ccccc3c2)ccc1OCCN1CCOCC1`, the Potency is reported as inconclusive [inhibitor, single point]. For `O=C(CCC(=O)OCC(=O)c1ccc(Cl)cc1Cl)Nc1cccc2cccnc12`, the Potency was active: 28.2 µM. In the case of `CNC(=O)N/N=C(\N)c1ccccn1`, the Potency is reported as “inactive”. With `N#Cc1c(N)n(CCNC(=O)c2ccc(Cl)cc2)c2nc3ccccc3nc12` the Potency was inconclusive [inhibitor, partial curve]. With `S=C1NC[C@H](CC2CCCCC2)N1CC1CCCCC1` the Potency was “inactive”. `COc1cccc(OCCNC(=O)c2ccccc2Sc2ccccc2C#N)c1` was tested, and the Potency was inconclusive [inhibitor, single point]. With `COc1ccc(N(CC(=O)NCc2cccs2)S(=O)(=O)c2c(C)n[nH]c2C)cc1` the Potency was inconclusive [inhibitor, single point]. For `CC1=CN2C(=N)/C(=C/c3ccc([N+](=O)[O-])o3)C(=O)N=C2S1`, the Potency was active: 3.55 µM. `Cc1csc(=Nc2c(C)n(C)n(-c3ccccc3)c2=O)n1Cc1ccccc1` was tested, and the Potency was “inactive”. `CCN(CC)CCOc1nnc(-c2ccc(C)cc2)c2ccccc12` was tested, and the Potency was inconclusive [inhibitor, single point]. In the case of `COc1ccc(-c2[nH]nc3c2C(c2ccc(OC(=O)N4CCOCC4)cc2)C(C#N)=C(N)O3)cc1` (configuration not stated), the Potency is reported as “inactive”. With `CCc1nc2c(cnn2-c2ccc(F)cc2)c(=O)n1-c1ccc(N2CCC(C)CC2)cc1` the Potency was inconclusive [inhibitor, partial curve]. In the case of `O=C1CN(C(=O)CNCc2ccccc2)c2ccccc2N1`, the Potency is reported as inconclusive [inhibitor, single point]. For `CCOc1ccc(-n2c(Cc3cc(=O)[nH]c(=O)[nH]3)nnc2SCC)cc1`, the Potency was inconclusive [inhibitor, single point]. For `Cc1cc(C)nc(NS(=O)(=O)c2ccc(NS(=O)(=O)c3ccccc3)cc2)n1`, the Potency was “inactive”. `CCOc1ccc(N2C(=O)CC(NCc3ccc(F)cc3)C2=O)cc1` (configuration not stated) was tested, and the Potency was inconclusive [inhibitor, single point]. In the case of `Cc1c(N2C(=O)c3cccc4cccc(c34)C2=O)c(=O)n(-c2ccccc2)n1C`, the Potency is reported as inconclusive [inhibitor, single point]. In the case of `N=c1ccn(Cc2ccc(Cl)cc2Cl)cc1`, the Potency is reported as “inactive”. For `N#Cc1ccc(CN2CCCC3(CCN(C(=O)c4cccc(F)c4)CC3)C2)cc1`, the Potency was inconclusive [inhibitor, single point]. With `Cc1cnc(C(=O)OCC(=O)Nc2oc(-c3ccccc3)c(-c3ccccc3)c2C#N)cn1` the Potency was inconclusive [inhibitor, single point]. In the case of `O=C(O)CCc1nc(-c2ccccc2)no1`, the Potency is reported as “inactive”. With `COc1ccc(CCc2nnc(CCC(=O)N(C)Cc3ccnc4ccccc34)o2)cc1` the Potency was “inactive”. With `Cc1ccc(-c2noc(CN3C(C)CCCC3C)n2)cc1` (configuration not stated) the Potency was inconclusive [inhibitor, single point]. In the case of `O=[N+]([O-])c1cnc2ccccc2c1`, the Potency is reported as active: 10 µM. With `Cc1cccc(NC(=O)/C=C/c2ccc3c(c2)OCO3)n1` the Potency was inconclusive [inhibitor, single point]. In the case of `CCOC(=O)c1c(NC(=O)Cn2nnc(-c3ccc(Cl)cc3)n2)sc(C)c1C`, the Potency is reported as “inactive”. With `CC(C)OC(=O)CSc1nnc(CNc2ccc(Cl)cc2)n1Cc1ccccc1` the Potency was inconclusive [inhibitor, single point]. For `O=C(Oc1cncc(Cl)c1)c1ccco1`, the Potency was “inactive”. With `CCOC(=O)C1(C)/C(=N/Nc2ccccc2)C(=O)C(=O)N1c1ccccc1` (configuration not stated) the Potency was inconclusive [inhibitor, single point]. With `Cc1cccc(OCc2nc(-c3cccnc3)no2)c1` the Potency was “inactive”. With `N#C/C(=C\Nc1ccc2c(c1)OCCO2)C(=O)NCc1ccco1` the Potency was inconclusive [inhibitor, single point]. For `O=C(O)c1cc(-c2ccc(/C=N/N3C(=O)C4C5C=CC(C6CC56)C4C3=O)o2)ccc1Cl` (configuration not stated), the Potency was active: 12.6 µM. For `COc1cccc(-n2c(=S)sc3c(=O)n(-c4ccccc4OC)c(SCC4OCCO4)nc32)c1`, the Potency was inconclusive [inhibitor, partial curve]. For `CCC(C)NS(=O)(=O)c1ccc(S(=O)(=O)N2CCCC3(CCCCC3)C2)cc1` (configuration not stated), the Potency was inconclusive [inhibitor, single point]. With `Cc1cccc(NS(=O)(=O)c2cccs2)n1` the Potency was inconclusive [inhibitor, single point]. `CCOC(=O)c1c(NC(=O)OC)sc(C(=O)N(CC)CC)c1C` was tested, and the Potency was inconclusive [inhibitor, single point]. With `CCCCNC(=S)NNC(=O)c1csc(C)c1CC` the Potency was “inactive”. For `COC(=O)c1ccc(/C=C(\C#N)C(=O)NC(C)c2ccccc2)cc1` (configuration not stated), the Potency was inconclusive [inhibitor, single point]. For `CCCCN(C)Cc1c(C)[nH]c2ccc(OCC)cc2c1=O`, the Potency was inconclusive [inhibitor, single point]. `Cc1cc2nc(-c3ccco3)cc(C(F)(F)F)n2n1` was tested, and the Potency was active: 14.1 µM. With `COc1ccc2[nH]c(C(=O)Nc3ccc(C)c(F)c3)cc2c1` the Potency was inconclusive [inhibitor, single point]. With `NS(=O)(=O)c1cc2c(cc1Cl)NC(Cc1ccccc1)NS2(=O)=O` (configuration not stated) the Potency was inconclusive [inhibitor, partial curve]. In the case of `COc1ccccc1OCCCOc1c(C)cc(C)cc1Br`, the Potency is reported as “inactive”.
